Source: ChEMBL document CHEMBL4888484, “Replenishing the malaria drug discovery pipeline: Screening and hit evaluation of the MMV Hit Generation Library 1 (HGL1) against asexual blood stage Plasmodium falciparum ,using a nano luciferase reporter read-out” (2022)
Values joined by “and” are separate entries in the source; they are usually repeats but may differ in a detail not shown here. Equal values may be shown once. In all, about 150,000 compounds went through this assay and about 540 (0.36%) showed an effect of 50% or more. This is one part of the list.

System: Plasmodium falciparum
Assay: Primary screen in NF54 nanoGlo assay, in single point, at 2uM, 72h; a lower Z score goes with more inhibition
Format: functional, Erythrocyte
Settings: timepoint 72 hour

| Structure (SMILES) | % Inhibition [%] | Z score | % Inhibition (2 µM) |
| --- | --- | --- | --- |
| CC(C)Cn1c(=O)c(N2CCN(C(=O)c3ccccc3)CC2)nc2ccccc21 | -4 | 0.44 |  |
| O=C(N[C@H]1CCc2n[nH]c(=O)cc2C1)c1ccc2[nH]cnc2c1 | -7 | 1.09 |  |
| COc1cccc(-c2ccc(N3CCCN(C(=O)CN(Cc4ccc(F)cc4)C(=O)NC(C)C)CC3)nn2)c1 | -24 | 2.98 |  |
| O=C(C[C@H]1CCS(=O)(=O)C1)Nc1nc(-c2ccccc2)cs1 | 5 | -0.65 |  |
| COC(=O)[C@@]1(C(C)C)N[C@@H](c2nc(C(C)C)cs2)[C@H]2C(=O)N(C)C(=O)[C@H]21 | -9 | 1.77 |  |
| COC1(C)CN(C(=O)[C@@H]2CC[C@H](C(=O)N3CC(C)(OC)C3)C2)C1 | 5 | -0.96 |  |
| CC(C)(C)N1C[C@@H](CNC(=O)CCCn2cncn2)CC1=O | -14 | 1.52 |  |
| CCCN(CCN(CC)CC)CC(=O)NCc1ccccc1C | -1 | 0.07 |  |
| CCn1ccnc1CNC(=O)c1cc(COc2ccc3sc(C)nc3c2)on1 | -19 | 1.71 |  |
| CN(C)C(=O)c1ccc(OC[C@H]2CCCO2)nc1 | 5 | -0.82 |  |
| O=C(Nc1nc(-c2ccc3c(c2)OCCO3)cs1)c1cc(Cl)sc1Cl | -2 | 0.31 |  |
| CCOC(=O)[C@H]1CCCN(S(=O)(=O)c2ccc(Cl)c(-c3nnc(-c4ccccc4)o3)c2)C1 | -7 | 1.16 |  |
| O=C(c1cscn1)N1CC[C@H](Oc2cccc(Cl)c2)C1 | 44 | -7.13 |  |
| O=C(CNc1cccc(Cl)c1)N1CCC(c2ccon2)CC1 | 0 | -0.02 |  |
| O=C(Cn1nc2ccc(C(=O)NCc3ccccc3)cn2c1=O)Nc1cccc(Br)c1 | -18 | 1.55 |  |
| CC1CCN([C@@H](CNC(=O)c2ccc(S(=O)(=O)N3CCCC3)cc2)c2cccs2)CC1 | -24 | 2.77 |  |
| CN(C)C(=NC(=O)Nc1cccc(C(F)(F)F)c1)N(C)C | 1 | -0.2 |  |
| CN(C)c1cc(-n2cc(Br)cn2)ncn1 | 0 | -0.03 |  |
| CC(C)[C@@H]1CN(c2cc(N)ncn2)CCCN1Cc1ccc(F)cc1 | 2 | -0.24 |  |
| Cc1ccc([C@H]2c3cc(OCc4nc(C(=O)N(C)C(C)C)co4)ccc3CCN2C(=O)C2CCCC2)cc1 | -14 | 2.15 |  |
| CCOC1CC(NC(=O)c2ccc3sccc3c2)(C(=O)O)C1(C)C (stereo not given) | 2 | -0.19 |  |
| COc1cccc(NC(=O)CN2CCCn3nc(C)cc32)c1 | 9 | -1.63 |  |

| Structure (SMILES) | % Inhibition [%] | Z score | % Inhibition (2 µM) |
| --- | --- | --- | --- |
| C#CCN1CCN(Cc2ccnn2C)CC1 | -5 | 0.66 |  |
| CCS(=O)(=O)c1ccc(N(C)CCN2CCCC2=O)cc1 | 9 | -0.97 |  |
| CN1CCc2c(c(NCCc3ccccc3)[nH]c3nnc(N)c2-3)C1 | -14 | 1.79 |  |
| CC1(C)OC(=O)C[C@@H]1C(=O)Nc1nnc[nH]1 |  |  | -12% and 7% |
| CN(C)C1(CNC(=O)CCc2cccc(F)c2F)CCOCC1 | 0 | -0.04 |  |
| O=C(NCC(F)(F)F)c1nn(CC2CC2)c2c1COCC2 | -12 | 1.53 |  |
| CCC(C)N1C(=O)C2C(CC(N)=O)NC3(C(=O)Nc4ccc(Br)cc43)C2C1=O (stereo not given) | 0 | 0.06 |  |
| Cc1cnn(CCNC(=O)N2CCC([C@H](F)c3ccccc3F)CC2)c1 | -5 | 0.79 |  |
| CC(O)CC(C)(C)CNC(=O)NC(C)c1nccs1 (stereo not given) | 2 | -0.3 |  |
| CC1CN(Cc2ccc(Cl)cc2Br)CC[S+]([O-])C1 (stereo not given) | -4 | 0.56 |  |
| Cc1cc(-c2nnc(NS(=O)(=O)c3cccnc3)o2)c(C)o1 | -10 | 1.59 |  |
| CC(C)(C)OC(=O)NC1CCC2CN(Cc3ccco3)CC21 (stereo not given) | -6 | 1.01 |  |
| CC[C@@H](C(N)=O)n1c(C)nnc1-c1cccc(C#N)c1 | -5 | 0.89 |  |
| O=C(NC(c1ccccc1)c1ccccc1)[C@@H](c1ccc(Cl)cc1Cl)N1CCOCC1 | -35 | 4.08 |  |
| CCOC(=O)Nc1nc2c(s1)CN(S(=O)(=O)c1ccccc1F)CC2 | -9 | 1.68 |  |
| Cc1ccc(NC[C@H]2CCCN2)c(C)c1 | -5 | 0.59 |  |
| Cc1cc(C)n(Cc2c(C(=O)NCc3ccco3)noc2C)n1 | -8 | 0.78 |  |
| CC(C)(C)OC(=O)NC1CC2CCCC(C1)C2NCCn1ccnc1 (stereo not given) | -5 | 0.82 |  |
| O=C(NC(c1ccccc1)c1ccccc1)c1ccccn1 | 4 | -0.79 |  |
| Cc1nccn1[C@@H](C)C(=O)NCc1cccnc1N1CCN(C)CC1 | -7 | 1.38 |  |
| Cc1ccc(C)c(-n2nc(CC(N)=O)nc2[C@H]2CCOC2)c1 | -14 | 2.02 |  |
